The list shows a part of the results. No stated cut-off is given here; in the data, active = 3.2 or more and inactive = the rest. Only a few entries rise above the background.
biological target: SHP2 C-SH2 domain E139D; experiment: enrichment score (SH2-bound / input frequency) (ratio); bacterial display of known human phosphotyrosine sites (pTyr-Var adds point mutants) read by sequencing; higher = stronger binding; tyrosines were phosphorylated by kinases first; details: peptide library: Human pTyr
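Further: displayed peptides selected on beads carrying the immobilized SH2 domain, with library peptides lacking any tyrosine serving as negative controls.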

Enrichment score, inactive:
DLINRMDYVEINIDH [VIGLN_HUMAN_437] 0.775, FEDCGGGYTPDCSSN [BCR_HUMAN_328] 0.573, SPPDASEYMTGKKLP [YY1_HUMAN_254_YA] 0.677, VGNGSSRYSPSQNSP [BCLF1_HUMAN_284] 0.751, MPMDTSVYESPASDP [ZAP70_HUMAN_315_YA] 0.6, AEAAASAYYNPGNPH [WBP2_HUMAN_231] 0.728, THTGEKPYECIKCGK [ZN670_HUMAN_281] 1.35, VHSGENPYECLECGK [ZN264_HUMAN_343] 0.603, TADRDPVYDESTDEE [XRCC4_HUMAN_229] 1, SEKGHRKYREASPPA [ZC3H4_HUMAN_155_YA] 0.812, SLSYDIHYWIGQDSS [VIL1_HUMAN_64] 1.99, MPMDTSVYESPYSDP [ZAP70_HUMAN_315] 0.471, SCGVDGDYEDAELNP [BCR_HUMAN_246] 1.3, GVVGGEDYEEVDRAS [ZN598_HUMAN_306_YA] 0.799, VVSEEPIYIVTEFMS [YES_HUMAN_345] 1.32, SGLSMSSYSVPRTPD [YAP1_HUMAN_407] 0.865, KKEIEDLYSRLGKQP [WNK4_HUMAN_1164] 1.22, EEAERKLYSGAQTDG [ZAP70_HUMAN_178] 0.666

biological target: SHP2 C-SH2 domain wild-type; experiment: as above; details: peptide library: Human pTyr

Enrichment score, inactive:
DLINRMDYVEINIDH [VIGLN_HUMAN_437] 1, FEDCGGGYTPDCSSN [BCR_HUMAN_328] 0.421, SPPDASEYMTGKKLP [YY1_HUMAN_254_YA] 0.726, VGNGSSRYSPSQNSP [BCLF1_HUMAN_284] 0.691, MPMDTSVYESPASDP [ZAP70_HUMAN_315_YA] 0.525, AEAAASAYYNPGNPH [WBP2_HUMAN_231] 0.768, THTGEKPYECIKCGK [ZN670_HUMAN_281] 0.9, VHSGENPYECLECGK [ZN264_HUMAN_343] 0.512, TADRDPVYDESTDEE [XRCC4_HUMAN_229] 1.2, SEKGHRKYREASPPA [ZC3H4_HUMAN_155_YA] 0.85, SLSYDIHYWIGQDSS [VIL1_HUMAN_64] 2.18, MPMDTSVYESPYSDP [ZAP70_HUMAN_315] 0.443, SCGVDGDYEDAELNP [BCR_HUMAN_246] 0.96, GVVGGEDYEEVDRAS [ZN598_HUMAN_306_YA] 0.81, VVSEEPIYIVTEFMS [YES_HUMAN_345] 1.06, SGLSMSSYSVPRTPD [YAP1_HUMAN_407] 1.75, KKEIEDLYSRLGKQP [WNK4_HUMAN_1164] 1.17, EEAERKLYSGAQTDG [ZAP70_HUMAN_178] 0.61

biological target: SHP2 N-SH2 domain L43F; experiment: as above; details: peptide library: Human pTyr

Enrichment score, inactive:
DLINRMDYVEINIDH [VIGLN_HUMAN_437] 0.893, FEDCGGGYTPDCSSN [BCR_HUMAN_328] 0.499, SPPDASEYMTGKKLP [YY1_HUMAN_254_YA] 0.703, VGNGSSRYSPSQNSP [BCLF1_HUMAN_284] 0.614, MPMDTSVYESPASDP [ZAP70_HUMAN_315_YA] 0.476, AEAAASAYYNPGNPH [WBP2_HUMAN_231] 0.739, THTGEKPYECIKCGK [ZN670_HUMAN_281] 0.986, VHSGENPYECLECGK [ZN264_HUMAN_343] 0.523, TADRDPVYDESTDEE [XRCC4_HUMAN_229] 0.973, SEKGHRKYREASPPA [ZC3H4_HUMAN_155_YA] 0.782, SLSYDIHYWIGQDSS [VIL1_HUMAN_64] 2.12, MPMDTSVYESPYSDP [ZAP70_HUMAN_315] 0.814, SCGVDGDYEDAELNP [BCR_HUMAN_246] 1.23, GVVGGEDYEEVDRAS [ZN598_HUMAN_306_YA] 0.748, VVSEEPIYIVTEFMS [YES_HUMAN_345] 2.1, SGLSMSSYSVPRTPD [YAP1_HUMAN_407] 0.451, KKEIEDLYSRLGKQP [WNK4_HUMAN_1164] 1.14, EEAERKLYSGAQTDG [ZAP70_HUMAN_178] 0.707

biological target: SHP2 N-SH2 domain T42A; experiment: as above; details: peptide library: Human pTyr

Enrichment score, inactive:
DLINRMDYVEINIDH [VIGLN_HUMAN_437] 0.897, FEDCGGGYTPDCSSN [BCR_HUMAN_328] 0.4, SPPDASEYMTGKKLP [YY1_HUMAN_254_YA] 0.714, VGNGSSRYSPSQNSP [BCLF1_HUMAN_284] 0.55, MPMDTSVYESPASDP [ZAP70_HUMAN_315_YA] 0.603, AEAAASAYYNPGNPH [WBP2_HUMAN_231] 0.91, THTGEKPYECIKCGK [ZN670_HUMAN_281] 0.843, VHSGENPYECLECGK [ZN264_HUMAN_343] 0.596, TADRDPVYDESTDEE [XRCC4_HUMAN_229] 1.12, SEKGHRKYREASPPA [ZC3H4_HUMAN_155_YA] 0.945, SLSYDIHYWIGQDSS [VIL1_HUMAN_64] 1.74, MPMDTSVYESPYSDP [ZAP70_HUMAN_315] 0.519, SCGVDGDYEDAELNP [BCR_HUMAN_246] 1.63, GVVGGEDYEEVDRAS [ZN598_HUMAN_306_YA] 0.718, VVSEEPIYIVTEFMS [YES_HUMAN_345] 2.09, SGLSMSSYSVPRTPD [YAP1_HUMAN_407] 0.537, KKEIEDLYSRLGKQP [WNK4_HUMAN_1164] 1.25, EEAERKLYSGAQTDG [ZAP70_HUMAN_178] 0.808

biological target: SHP2 N-SH2 domain T52S; experiment: as above; details: peptide library: Human pTyr

Enrichment score, inactive:
DLINRMDYVEINIDH [VIGLN_HUMAN_437] 0.881, FEDCGGGYTPDCSSN [BCR_HUMAN_328] 0.413, SPPDASEYMTGKKLP [YY1_HUMAN_254_YA] 0.672, VGNGSSRYSPSQNSP [BCLF1_HUMAN_284] 0.722, MPMDTSVYESPASDP [ZAP70_HUMAN_315_YA] 0.576, AEAAASAYYNPGNPH [WBP2_HUMAN_231] 0.638, THTGEKPYECIKCGK [ZN670_HUMAN_281] 1.03, VHSGENPYECLECGK [ZN264_HUMAN_343] 0.616, TADRDPVYDESTDEE [XRCC4_HUMAN_229] 1.18, SEKGHRKYREASPPA [ZC3H4_HUMAN_155_YA] 0.887, SLSYDIHYWIGQDSS [VIL1_HUMAN_64] 2.02, MPMDTSVYESPYSDP [ZAP70_HUMAN_315] 0.481, SCGVDGDYEDAELNP [BCR_HUMAN_246] 1.34, GVVGGEDYEEVDRAS [ZN598_HUMAN_306_YA] 0.811, VVSEEPIYIVTEFMS [YES_HUMAN_345] 2, SGLSMSSYSVPRTPD [YAP1_HUMAN_407] 0.463, KKEIEDLYSRLGKQP [WNK4_HUMAN_1164] 1.06, EEAERKLYSGAQTDG [ZAP70_HUMAN_178] 0.613

biological target: SHP2 N-SH2 domain wild-type; experiment: as above; details: peptide library: Human pTyr

Enrichment score, inactive:
DLINRMDYVEINIDH [VIGLN_HUMAN_437] 0.922, FEDCGGGYTPDCSSN [BCR_HUMAN_328] 0.61, SPPDASEYMTGKKLP [YY1_HUMAN_254_YA] 0.515, VGNGSSRYSPSQNSP [BCLF1_HUMAN_284] 0.555, MPMDTSVYESPASDP [ZAP70_HUMAN_315_YA] 0.568, AEAAASAYYNPGNPH [WBP2_HUMAN_231] 0.621, THTGEKPYECIKCGK [ZN670_HUMAN_281] 1.18, VHSGENPYECLECGK [ZN264_HUMAN_343] 0.789, TADRDPVYDESTDEE [XRCC4_HUMAN_229] 0.902, SEKGHRKYREASPPA [ZC3H4_HUMAN_155_YA] 0.803, SLSYDIHYWIGQDSS [VIL1_HUMAN_64] 2.04, MPMDTSVYESPYSDP [ZAP70_HUMAN_315] 0.533, SCGVDGDYEDAELNP [BCR_HUMAN_246] 1.54, GVVGGEDYEEVDRAS [ZN598_HUMAN_306_YA] 0.863, VVSEEPIYIVTEFMS [YES_HUMAN_345] 1.59, SGLSMSSYSVPRTPD [YAP1_HUMAN_407] 0.597, KKEIEDLYSRLGKQP [WNK4_HUMAN_1164] 1.45, EEAERKLYSGAQTDG [ZAP70_HUMAN_178] 0.766
